{
  "source": "PubChem BioAssay AID624296",
  "about": "(National Center for Advancing Translational Sciences (NCATS), 2012)",
  "note": "In all, about 350,000 compounds went through this assay and about 9,900 (2.8%) were called active. The inconclusive results got no clear call from the source; some entries with a clear call stand among them for comparison. Calls follow the shape of the dose curve; as a rule, active = well fitted activation curve with a large enough effect; inconclusive = small, poorly fitted or top-dose-only effect; inactive = no such curve, though single readings can be large or run the other way. No potency is given beside an inconclusive call; the fits are too rough. Potency is read from the fitted curve at half-maximal effect; tags tell the direction and shape of the fitted curve.",
  "data": [
    {"experiment": "A quantitative high throughput screen for small molecules that induce DNA re-replication in MCF 10a normal breast cells; also: nearly all actives have a fitted effect of over 50% in size; as to activity, positive = re-replication: % of control where 0% means no effect.", "conditions": "MCF 10A DNA re-replication, Hoechst nuclear intensity, 48 h; activity, positive = re-replication: at 46.1 µM (top of the series)", "values": [
      {"compound": "CCCCc1nc(SCC(=O)Nc2cc(C)on2)n[nH]1", "Potency": "inconclusive [activator, full curve, poor fit]"},
      {"compound": "Nc1nnc(SCc2ccc(Cl)cc2)s1", "Potency": "inconclusive [activator, partial curve, poor fit]"},
      {"compound": "CCc1ccc2[nH]c3nc(N/N=C/c4ccc(O)cc4O)nnc3c2c1", "activity, positive = re-replication": "inactive: 10.3%"},
      {"compound": "NC(=O)CCn1ccc2ccccc21", "Potency": "inconclusive [activator, partial curve, poor fit]"},
      {"compound": "Cc1nc2c(-c3ccc(F)cc3)c(C)nn2c(C)c1CCC(=O)N1CCC(Cc2ccccc2)CC1", "Potency": "active: 20.6 µM"},
      {"compound": "COc1ccc(NS(=O)(=O)c2cc(NC(=O)C3CCCO3)ccc2N2CCCCC2)cc1", "note": "(stereo not drawn)", "Potency": "inconclusive [activator, single point]"},
      {"compound": "Cc1cccc(C)c1NC(=O)C1(N2CCN(C(=O)c3ccco3)CC2)CCCCC1", "activity, positive = re-replication": "inconclusive: 87.6% [activator]"},
      {"compound": "CC1=NCC(C)c2c1[nH]c1ccccc21", "note": "(stereo not drawn)", "Potency": "inconclusive [activator, single point]"},
      {"compound": "CCSc1nc2ccccc2c(=O)n1C1CCOC(C)(C)C1", "note": "(stereo not drawn)", "Potency": "inconclusive [activator, single point]"},
      {"compound": "CC(=O)c1c(C)n(CC(=O)NCc2ccc3c(c2)OCO3)c2ccccc12", "Potency": "inconclusive [activator, single point]"},
      {"compound": "CCCCCCn1c(=O)[nH]c2nc3cc(N)c(C)cc3nc2c1=O", "Potency": "inconclusive [activator, full curve, poor fit]"},
      {"compound": "NS(=O)(=O)c1ccc(N/C=C/C(=O)c2ccc(Br)cc2)cc1", "Potency": "inconclusive [activator, full curve, poor fit]"},
      {"compound": "CC(=O)C1=C(O)C(=O)N(c2cccc(Br)c2)C1c1ccccc1Cl", "note": "(stereo not drawn)", "Potency": "inconclusive [activator, single point]"},
      {"compound": "CC(C)Oc1cccc(-c2cc(C(=O)NN3CCOCC3)c3ccccc3n2)c1", "Potency": "inconclusive [activator, partial curve, poor fit]"},
      {"compound": "COc1ccccc1NC(=O)C1=C(C)N(c2ccccc2)C(=S)NC1c1cccc(C(F)(F)F)c1", "note": "(stereo not drawn)", "activity, positive = re-replication": "inactive: 15.8%"},
      {"compound": "Brc1cc2c(cc1/C=N/Nc1nc3ccccc3s1)OCO2", "Potency": "active: 12.6 µM"},
      {"compound": "Cc1ccc(NC(=O)CN2CCN(c3ccccn3)CC2)c(Cl)c1", "Potency": "inconclusive [activator, single point]"},
      {"compound": "Cc1ccc(C(C)C)c(OCCNC(=O)c2cncc(Br)c2)c1", "Potency": "inconclusive [activator, single point]"}
    ]}
  ]
}
